Results from the supplement of paper PMC8728848.
The other results are listed elsewhere or left out.

What was measured:
Experiment in all cases: glycan array binding signal (z-score within array); higher = stronger binding
Conditions in all cases: glycan notation: IUPAC condensed, linker removed; mutation: W10H
[1] = biological target: Fuc(a1-2)Gal(b1-4)GlcNAc(b1-3)Gal(b1-4)GlcNAc(b1-2)Man(a1-3)[Fuc(a1-2)Gal(b1-4)GlcNAc(b1-3)Gal(b1-4)GlcNAc(b1-2)Man(a1-6)]Man(b1-4)GlcNAc(b1-4)GlcNAc
In short: (§1)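 Glycan array data were curated from 3228 arrays in the Consortium for Functional Glycomics database and kept only where the protein sequence was available. Glycan names were converted to IUPAC-condensed notation, and columns mapping to the same glycan were averaged. The binding signal is a within-array Z-score, averaged across arrays of the same protein sequence at different concentrations or buffers and across linkers. Negative Z-scores can be read as non-binding.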

[2] = biological target: Fuc(a1-2)Gal(b1-4)GlcNAc(b1-3)Gal(b1-4)GlcNAc(b1-3)Gal(b1-4)GlcNAc
In short: as §1

[3] = biological target: Fuc(a1-2)Gal(b1-4)GlcNAc(b1-3)GalNAc
In short: as §1

[4] = biological target: Fuc(a1-2)Gal(b1-4)GlcNAc(b1-3)[Fuc(a1-2)Gal(b1-4)GlcNAc(b1-6)]GalNAc
In short: as §1

[5] = biological target: Fuc(a1-2)Gal(b1-4)GlcNAc(b1-3)[Fuc(a1-3)[Gal(b1-4)]GlcNAc(b1-6)]Gal(b1-4)Glc
In short: as §1

[6] = biological target: Fuc(a1-2)Gal(b1-4)GlcNAc(b1-6)GalNAc
In short: as §1

[7] = biological target: Fuc(a1-2)Gal(b1-4)GlcNAc6S
In short: as §1

[8] = biological target: Fuc(a1-2)Gal(b1-4)[Fuc(a1-3)]GlcNAc
In short: as §1

[9] = biological target: Fuc(a1-2)Gal(b1-4)[Fuc(a1-3)]GlcNAc(b1-2)Man(a1-3)[Fuc(a1-2)Gal(b1-4)[Fuc(a1-3)]GlcNAc(b1-2)Man(a1-6)]Man(b1-4)GlcNAc(b1-4)[Fuc(a1-6)]GlcNAc
In short: as §1

[10] = biological target: Fuc(a1-2)Gal(b1-4)[Fuc(a1-3)]GlcNAc(b1-2)[Fuc(a1-2)Gal(b1-4)[Fuc(a1-3)]GlcNAc(b1-4)]Man(a1-3)[Fuc(a1-2)Gal(b1-4)[Fuc(a1-3)]GlcNAc(b1-2)Man(a1-6)]Man(b1-4)GlcNAc(b1-4)GlcNAc
In short: as §1

[11] = biological target: Fuc(a1-2)Gal(b1-4)[Fuc(a1-3)]GlcNAc(b1-3)Gal(b1-4)[Fuc(a1-3)]GlcNAc
In short: as §1

[12] = biological target: Fuc(a1-2)Gal(b1-4)[Fuc(a1-3)]GlcNAc(b1-3)Gal(b1-4)[Fuc(a1-3)]GlcNAc(b1-3)Gal(b1-4)[Fuc(a1-3)]GlcNAc
In short: as §1

[13] = biological target: Fuc(a1-2)Gal(b1-4)[Fuc(a1-3)]GlcNAc(b1-3)GalNAc
In short: as §1

[14] = biological target: Fuc(a1-2)Gal(b1-4)[Fuc(a1-3)]GlcNAc(b1-3)[Neu5Ac(a2-6)Gal(b1-4)GlcNAc(b1-6)]Gal(b1-4)Glc
In short: as §1

[15] = biological target: Fuc(a1-2)Gal3S(b1-4)GlcNAc
In short: as §1

[16] = biological target: Fuc(a1-2)Gal6S(b1-3)GlcNAc
In short: as §1

[17] = biological target: Fuc(a1-2)Gal6S(b1-3)GlcNAc6S
In short: as §1

[18] = biological target: Fuc(a1-2)Gal6S(b1-4)Glc
In short: as §1

[19] = biological target: Fuc(a1-2)Gal6S(b1-4)Glc6S
In short: as §1

[20] = biological target: Fuc(a1-2)[Gal(a1-3)]Gal
In short: as §1

[21] = biological target: Fuc(a1-2)[Gal(a1-3)]Gal(b1-3)GalNAc
In short: as §1

[22] = biological target: Fuc(a1-2)[Gal(a1-3)]Gal(b1-3)GalNAc(b1-3)Gal(a1-4)Gal(b1-4)Glc
In short: as §1

[23] = biological target: Fuc(a1-2)[Gal(a1-3)]Gal(b1-3)GlcNAc
In short: as §1

[24] = biological target: Fuc(a1-2)[Gal(a1-3)]Gal(b1-3)GlcNAc(b1-2)Man(a1-3)[Fuc(a1-2)[Gal(a1-3)]Gal(b1-3)GlcNAc(b1-2)Man(a1-6)]Man(b1-4)GlcNAc(b1-4)GlcNAc
In short: as §1

[25] = biological target: Fuc(a1-2)[Gal(a1-3)]Gal(b1-3)GlcNAc(b1-2)Man(a1-3)[Fuc(a1-2)[Gal(a1-3)]Gal(b1-3)GlcNAc(b1-2)Man(a1-6)]Man(b1-4)GlcNAc(b1-4)[Fuc(a1-6)]GlcNAc
In short: as §1

[26] = biological target: Fuc(a1-2)[Gal(a1-3)]Gal(b1-3)GlcNAc(b1-3)GalNAc
In short: as §1

[27] = biological target: Fuc(a1-2)[Gal(a1-3)]Gal(b1-3)GlcNAc(b1-6)GalNAc
In short: as §1

[28] = biological target: Fuc(a1-2)[Gal(a1-3)]Gal(b1-4)Glc
In short: as §1

[29] = biological target: Fuc(a1-2)[Gal(a1-3)]Gal(b1-4)GlcNAc
In short: as §1

[30] = biological target: Fuc(a1-2)[Gal(a1-3)]Gal(b1-4)GlcNAc(b1-2)Man
In short: as §1

[31] = biological target: Fuc(a1-2)[Gal(a1-3)]Gal(b1-4)GlcNAc(b1-2)Man(a1-3)[Fuc(a1-2)[Gal(a1-3)]Gal(b1-4)GlcNAc(b1-2)Man(a1-6)]Man(b1-4)GlcNAc(b1-4)GlcNAc
In short: as §1

[32] = biological target: Fuc(a1-2)[Gal(a1-3)]Gal(b1-4)GlcNAc(b1-2)Man(a1-3)[Fuc(a1-2)[Gal(a1-3)]Gal(b1-4)GlcNAc(b1-2)Man(a1-6)]Man(b1-4)GlcNAc(b1-4)[Fuc(a1-6)]GlcNAc
In short: as §1

[33] = biological target: Fuc(a1-2)[Gal(a1-3)]Gal(b1-4)GlcNAc(b1-3)GalNAc
In short: as §1

[34] = biological target: Fuc(a1-2)[Gal(a1-3)]Gal(b1-4)GlcNAc(b1-3)[Fuc(a1-2)[Gal(a1-3)]Gal(b1-4)GlcNAc(b1-6)]GalNAc
In short: as §1

[35] = biological target: Fuc(a1-2)[Gal(a1-3)]Gal(b1-4)GlcNAc(b1-6)GalNAc
In short: as §1

[36] = biological target: Fuc(a1-2)[Gal(a1-3)]Gal(b1-4)[Fuc(a1-3)]Glc
In short: as §1

[37] = biological target: Fuc(a1-2)[Gal(a1-3)]Gal(b1-4)[Fuc(a1-3)]GlcNAc
In short: as §1

[38] = biological target: Fuc(a1-2)[Gal(a1-3)]Gal(b1-4)[Fuc(a1-3)]GlcNAc(b1-3)GalNAc
In short: as §1

[39] = biological target: Fuc(a1-2)[Gal(a1-4)]Gal(b1-4)GlcNAc
In short: as §1

[40] = biological target: Fuc(a1-2)[GalNAc(a1-3)]Gal
In short: as §1

[41] = biological target: Fuc(a1-2)[GalNAc(a1-3)]Gal(b1-3)GalNAc(a1-3)[Fuc(a1-2)]Gal(b1-4)GlcNAc
In short: as §1

[42] = biological target: Fuc(a1-2)[GalNAc(a1-3)]Gal(b1-3)GalNAc(b1-3)Gal(a1-4)Gal(b1-4)Glc
In short: as §1

[43] = biological target: Fuc(a1-2)[GalNAc(a1-3)]Gal(b1-3)GlcNAc
In short: as §1

[44] = biological target: Fuc(a1-2)[GalNAc(a1-3)]Gal(b1-3)GlcNAc(b1-2)Man(a1-3)[Fuc(a1-2)[GalNAc(a1-3)]Gal(b1-3)GlcNAc(b1-2)Man(a1-6)]Man(b1-4)GlcNAc(b1-4)GlcNAc
In short: as §1

[45] = biological target: Fuc(a1-2)[GalNAc(a1-3)]Gal(b1-3)GlcNAc(b1-2)Man(a1-3)[Fuc(a1-2)[GalNAc(a1-3)]Gal(b1-3)GlcNAc(b1-2)Man(a1-6)]Man(b1-4)GlcNAc(b1-4)[Fuc(a1-6)]GlcNAc
In short: as §1

B1: Banana lectin (Musa acuminata) (protein)
chain: MNGAIKVGAHGGNGGSAFDMGPAYRIISVKIFSGDVVDGVDVTFTYYGKTETRHYGGSGGTPHEIVLQEGEYLVGMAGEVANYHGAVVLGKLGFSTNKKAYGPFGNTGGTPFSLPIAAGKISGFFGRGGKFLDAIGVYLEPLEHHHHHH
- glycan array binding signal (z-score) [1]: -0.14
- glycan array binding signal (z-score) [2]: -0.131
- glycan array binding signal (z-score) [3]: -0.182
- glycan array binding signal (z-score) [4]: -0.164
- glycan array binding signal (z-score) [5]: -0.128
- glycan array binding signal (z-score) [6]: -0.158
- glycan array binding signal (z-score) [7]: -0.179
- glycan array binding signal (z-score) [8]: -0.179
- glycan array binding signal (z-score) [9]: -0.129
- glycan array binding signal (z-score) [10]: -0.112
- glycan array binding signal (z-score) [11]: -0.129
- glycan array binding signal (z-score) [12]: -0.169
- glycan array binding signal (z-score) [13]: -0.188
- glycan array binding signal (z-score) [14]: -0.189
- glycan array binding signal (z-score) [15]: -0.187
- glycan array binding signal (z-score) [16]: -0.194
- glycan array binding signal (z-score) [17]: -0.145
- glycan array binding signal (z-score) [18]: -0.195
- glycan array binding signal (z-score) [19]: -0.169
- glycan array binding signal (z-score) [20]: -0.165
- glycan array binding signal (z-score) [21]: -0.151
- glycan array binding signal (z-score) [22]: -0.115
- glycan array binding signal (z-score) [23]: -0.151
- glycan array binding signal (z-score) [24]: -0.027
- glycan array binding signal (z-score) [25]: 0.161
- glycan array binding signal (z-score) [26]: -0.17
- glycan array binding signal (z-score) [27]: -0.147
- glycan array binding signal (z-score) [28]: -0.175
- glycan array binding signal (z-score) [29]: -0.172
- glycan array binding signal (z-score) [30]: -0.169
- glycan array binding signal (z-score) [31]: -0.132
- glycan array binding signal (z-score) [32]: 0.24
- glycan array binding signal (z-score) [33]: -0.211
- glycan array binding signal (z-score) [34]: -0.183
- glycan array binding signal (z-score) [35]: -0.146
- glycan array binding signal (z-score) [36]: -0.137
- glycan array binding signal (z-score) [37]: -0.168
- glycan array binding signal (z-score) [38]: -0.15
- glycan array binding signal (z-score) [39]: -0.211
- glycan array binding signal (z-score) [40]: -0.143
- glycan array binding signal (z-score) [41]: -0.191
- glycan array binding signal (z-score) [42]: -0.156
- glycan array binding signal (z-score) [43]: -0.171
- glycan array binding signal (z-score) [44]: -0.144
- glycan array binding signal (z-score) [45]: 0.421
